# PubChem BioAssay AID686978 (National Center for Advancing Translational Sciences (NCATS), 2013)
# Hit rate of the full screen: of about 420,000 compounds, about 64,000 (15%) were called active. Inconclusive means that the source gave no clear call. Such entries were picked first, then a sample of the others. The call rests on the fitted dose curve; in most records, active means well fitted inhibition curve with a large enough effect; inconclusive means small, poorly fitted or top-dose-only effect; inactive means flat fitted curve, though single readings scatter. Potencies of inconclusive entries are left out as doubtful fits.
# Assay: qHTS for Inhibitors of human tyrosyl-DNA phosphodiesterase 1 (TDP1): qHTS in cells in absence of CPT; further: nearly all actives have a fitted effect of over 55% in size
# Details: DT40 Tdp1-/- hTDP1 cells, no CPT, ATP luminescence, 48 h; activity change, negative = growth inhibition: at 46.2 µM (top of the series)
# How it was run: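 Luminescent ATP content (CellTiter-Glo) served as the growth readout. Knockout chicken DT40 cells expressing human TDP1 were exposed to compounds without camptothecin for a minimum 48 hr at 37 °C.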
# On the % scale 0 is the no-effect control and ±100 the full control effect; potency means the concentration at half of the fitted maximal effect; tags describe the fitted curve by direction and shape.
SMILES,"activity change, negative = growth inhibition",Potency
Cc1cc(C)cc(NC(=S)N2CCC(NC(=O)c3ccco3)CC2)c1,inactive: -26.9%,
COC(=O)c1cccc(NC(=O)/C=C/c2ccc3c(c2)OCO3)c1,,"inconclusive [inhibitor, single point]"
COc1ccc(NC(=O)C[C@H]2C(=O)N(c3ccccc3)C[C@@H]2CSC)cc1,,"inconclusive [inhibitor, partial curve, poor fit]"
COC(=O)c1sccc1S(=O)(=O)N1CCN(c2ccccc2)CC1,inactive: -27.5%,
COc1ccc(S(=O)(=O)N2CCc3ccccc32)cc1C(=O)NC1(C)CCS(=O)(=O)C1 (stereo not given),inactive: -0.191%,
CCc1ccc2[nH]c(=O)c(CN(Cc3ccccc3)Cc3nnnn3C(C)(C)C)cc2c1,,active: 11.2 µM
CCN(CC)S(=O)(=O)c1ccc2c(c1)N(CC(=O)NCCCN1CCN(c3ccccc3F)CC1)C(=O)CO2,,"inconclusive [inhibitor, single point]"
CC1CN(S(=O)(=O)c2cccc(C(=O)N3CCC(C(N)=O)CC3)c2)CC(C)O1 (stereo not given),inactive: -4.74%,
Cc1ccc2[nH]c(=O)c3cc(C(=O)N4CCN(c5ccccc5)CC4)sc3c2c1,,"inconclusive [inhibitor, single point]"
CC(C)(CNC(=O)Cc1ccc(NS(=O)(=O)c2cccc(C(F)(F)F)c2)cc1)N1CCOCC1,,"inconclusive [inhibitor, single point]"
N#CC(C(O)c1ccccc1)N1CCOCC1 (stereo not given),,"inconclusive [inhibitor, single point]"
CCOC(=O)C(Cc1nc(OCc2ccccc2)cc(OCc2ccccc2)n1)=NO,,"inconclusive [inhibitor, single point]"
COc1cccc(NC(=O)NCc2ccc3c(c2)CCN3C(=O)c2ccccc2)c1,,"inconclusive [inhibitor, single point]"
O=C(NNC(=O)c1ncc(Cl)c(Cl)c1Cl)c1ccc(F)cc1,,"inconclusive [inhibitor, single point]"
CSc1ccc(Cl)c(C(=O)Nc2ccc(N3CCOCC3)cc2)c1,inactive: -17.8%,
COc1ccc(N2CCN(Cc3nc(N)nc(Nc4ccccc4OC)n3)CC2)cc1,,"inconclusive [inhibitor, partial curve]"
C/C(=N/Nc1ccc(C(=O)O)cc1)c1ccc(O)c(O)c1O,,active: 14.6 µM
COc1ccccc1C(=O)NC(=S)N1CCCc2ccccc21,,"inconclusive [inhibitor, partial curve]"
Cc1[nH]n(-c2ccc([N+](=O)[O-])cc2)c(=O)c1C=NCCN1CCN(C(=O)C(C)C)CC1,,active: 16.4 µM
O=C(CC(C(=O)c1ccccc1)c1ccccc1)c1ccccc1 (stereo not given),,active: 20.6 µM
Cc1onc(-c2ccccc2Cl)c1C(=O)Nc1ccc(-c2nnc3n2CCCCC3)cc1,,"inconclusive [inhibitor, single point]"
O=C(CCN1C(=O)C2C3C=CC(C3)C2C1=O)NCc1cccnc1 (stereo not given),inactive: -11.4%,
O=C(NCc1ccccc1)C(c1ccc(-c2ccccc2)cc1)n1c(=O)c(-c2cc3ccccc3[nH]2)nc2ccccc21 (stereo not given),,active: 14.6 µM

SMILES,"activity change, negative = growth inhibition",Potency
Cc1sc(NC(=O)CSc2nnc(-c3ccc(F)cc3)o2)c(C#N)c1C,,"inconclusive [inhibitor, single point]"
O=C(CCN1CCCO1)N1CCCC(N2CCN(c3cccc(C(F)(F)F)c3)CC2)C1 (stereo not given),inactive: 1.53%,
CC(C)C(=O)Nc1cccnc1,inactive: 3.51%,
COC(=O)/C=C/C(=O)NCc1ccco1,inactive: -5.88%,
COc1ccc(CCNc2ccc(C(CC(N)=O)NC(=O)Cc3cccc4ccccc34)cc2[N+](=O)[O-])cc1 (stereo not given),,"inconclusive [inhibitor, single point]"
Cc1cc(C)c(NC(=O)CSc2nc3ccc(NC(=O)CSc4nnnn4-c4ccccc4)cc3s2)c(C)c1,,"inconclusive [inhibitor, single point]"
CC(C)c1ccc(C2N3CC4(C)CN2CC(c2ccccc2)(C3)C4=O)cc1 (stereo not given),,active: 18.4 µM
Cc1cccc(CN2CCN(C3CN(Cc4ccccc4)S(=O)(=O)C3)CC2)c1 (stereo not given),,"inconclusive [inhibitor, single point]"
CCc1ccc(NC(=O)c2cc(C(C)=O)n3ccccc23)cc1,,"inconclusive [inhibitor, single point]"
O=C(COC(=O)c1cc(Cl)nc(Cl)c1)Nc1ccc(Cl)c(S(=O)(=O)N2CCOCC2)c1,,"inconclusive [inhibitor, single point]"
COc1ccc(NC(=S)N2CCN(c3ccc4c(c3)C3CCN(C(=O)OCc5ccccc5)C4C3)CC2)c(OC)c1 (stereo not given),,active: 5.17 µM
CCOC(=O)c1scc(-c2ccccc2)c1S(=O)(=O)Nc1ccccc1F,,"inconclusive [inhibitor, partial curve, poor fit]"
COc1cc(NC(=O)c2ccc(-c3ccnn3C)c3ccoc23)cc(OC)c1OC,,active: 20.6 µM
CCc1nn(-c2ccccc2)c2nc(-c3ccccc3OC)c3cc(OC)c(OC)cc3c12,,active: 16.4 µM
Cc1c(Br)c([N+](=O)[O-])nn1CC(=O)NCCc1c[nH]c2ccccc12,,"inconclusive [inhibitor, partial curve, poor fit]"
COc1ccc(OCCCC(=O)Nc2cc([N+](=O)[O-])ccc2C)cc1,,"inconclusive [inhibitor, single point]"
Cc1ccc(S(=O)(=O)NCCC(=O)N2CCCC(C)C2)cc1 (stereo not given),inactive: -44%,
Cc1ccc(-c2nnc3ccc(SCC(=O)OCc4ccccc4)nn23)cc1,,"inconclusive [inhibitor, single point]"
O=C(Cn1c(=O)oc2cc(S(=O)(=O)N3CCCCC3)ccc21)Nc1cccc(Cl)c1,,active: 9.2 µM
CCCCN1C(=O)c2[nH]nc(-c3ccccc3O)c2C1c1cccc(OCc2ccccc2)c1 (stereo not given),,active: 18.4 µM
Cn1nc(C(=O)NC2CCC(O)CC2)c2ccccc2c1=O (stereo not given),inactive: 5.86%,
CC(CCc1ccccc1)N(C)CC(O)c1cccc([N+](=O)[O-])c1 (stereo not given),,"inconclusive [inhibitor, partial curve]"
